# Hit rate of the full screen: of about 110,000 compounds, about 40 (0.04%) were called active. The inconclusive results got no clear call from the source; some entries with a clear call stand among them for comparison. Calls come from the whole dose curve; as a rule, active = well fitted curve in the direction sought with a large enough effect in the signal ratio (not every such curve was filed as active); inconclusive = small, poorly fitted or top-dose-only effect, or a change in a side signal; inactive = flat fitted curve, though single readings scatter; the % refers to the signal ratio. Where the call is inconclusive, the potency comes from a doubtful curve fit.
# Test: IkB Signaling;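 for IkBa stabilization activation: 0% = basal untreated cells and 100% = reference inhibitor full response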
# Conditions: ABC-DLBCL IkBa-CBG/CBR dual luciferase ratio (green luciferase fused to IkBa over red control in OCI-Ly3 lymphoma cells), 4 h; IkBa stabilization activation: at 57.1 µM (top of the series), scaled: untreated 0%, proteasome inhibitor 100% unless noted
# In short: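 Luminescence ratio of IκBα-fused green versus native red beetle luciferase in OCI-Ly3 cells, 4 h post-doxycycline with compound; red signal alone, scaled from basal (0%) to zero light (-100%), flagged nonspecific or cytotoxic effects.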
# Potency is the fitted concentration of half-maximal effect.
Structure (SMILES),Potency,IkBa stabilization activation
Cc1ccc(NS(=O)(=O)c2ccc3c(c2)[C@H]2C=CC[C@H]2[C@@H](c2ccc(F)cc2)N3)cc1C,inconclusive: 10 µM [signal inhibitor],–
Cn1c(=O)c2c(SCC(=O)NCc3ccc(F)cc3)nc(-c3ccccc3Cl)nc2n(C)c1=O,–,inconclusive: 0.302% [signal inhibitor]
O=C(CSC1=NCCS1)Nc1ccnc2ccccc12,–,inconclusive: 0.958% [signal inhibitor]
COc1ccc(CCNC(=O)C2CCCN(Cc3nc(-c4ccccc4C)oc3C)C2)cc1OC (centres undefined),–,inconclusive: 2.52% [signal inhibitor]
COc1cc(NC(=O)CCS(=O)(=O)c2nc(-c3ccc4c(c3)OCO4)cc(C(F)(F)F)n2)cc(OC)c1OC,–,inconclusive: -2.4% [signal inhibitor]
COCCCN1C(=O)c2[nH]nc(-c3ccccc3O)c2C1c1ccc(OCc2ccccc2)cc1 (centres undefined),–,inconclusive: -0.125% [signal inhibitor]
C1=C(N2CCOCC2)/C(=C/c2nc3ccccc3[nH]2)CC1,"inconclusive: 20 µM [signal inhibitor, partial curve]",–
CCOc1cccc(C(=O)Nc2cccc(-c3nnc(-c4ccc(C)cc4)o3)c2)c1,–,inactive
Cc1nc(NC(=O)c2c(-c3ccccc3)c(-c3ccccc3)nn(C)c2=O)sc1C,–,inconclusive: -1.92% [signal inhibitor]
COCCn1c(=O)c(-c2ccc(F)cc2)nc2cnc(N3CCOCC3)nc21,–,"inactive: -0.00319% [at 11.4 µM, scaled: untreated 0%, proteasome inhibitor 100%]"
Cc1cc(C)c(NC(=O)CCn2c(=O)c3cccn3c3ccccc32)c(C)c1,–,inconclusive: -1.32% [signal inhibitor]
CCN1CCN(C(c2ccc(SC)cc2)c2c(O)cc(C)n(Cc3ccco3)c2=O)CC1 (centres undefined),–,inconclusive: 7.85% [signal activator]
Oc1ccc(-c2nc(-c3ccccc3)c(-c3ccc(Br)cc3)[nH]2)cc1,–,inconclusive: -4.43% [signal inhibitor]
O=C(COC(=O)C(Cc1c[nH]c2ccccc12)NC(=O)c1ccc(Cl)cc1)c1ccc(Cl)cc1 (centres undefined),–,inconclusive: -0.112% [signal inhibitor]
COc1ccc(-c2cc(=O)c3cc(OCC(=O)OC(C)C)ccc3o2)cc1,"inconclusive: 39.8 µM [signal inhibitor, single point]",–
COc1ccccc1-c1nnc2sc(-c3ccc(N(C)C)cc3)nn12,–,inactive
Cc1ccc(Cn2c(SCC(=O)NCc3ccccc3Cl)nc3ccsc3c2=O)cc1,–,inactive

Structure (SMILES),Potency,IkBa stabilization activation
CCOC(=O)c1cc2c(=O)n3ccccc3nc2n(Cc2ccco2)c1=NC(=O)c1cccc(F)c1,–,inconclusive: -1.48% [signal inhibitor]
Fc1ccc(Nc2nc(SCc3ccccc3F)nc3ccccc23)cc1,–,inactive
COc1cc(NC(=O)CCCc2nnc3n(CC(C)C)c(=O)c4sccc4n23)cc(OC)c1,–,inconclusive: 0.114% [signal inhibitor]
CC(C)c1ccc(NS(=O)(=O)c2ccc3[nH]cc(C(=O)NCC4CCCO4)c(=O)c3c2)cc1 (centres undefined),–,inconclusive: 1.34% [signal inhibitor]
CCC(C(=O)Nc1cc(C)nn1-c1nc(C)cc(C)n1)c1ccccc1 (centres undefined),–,inactive
CCN(C(=O)c1ccc(C(C)(C)C)cc1)c1nnc(Cn2nnc3ccccc32)s1,–,inconclusive: 4.33% [signal inhibitor]
CN(C)S(=O)(=O)c1ccc2c(c1)N(CC(=O)Nc1ccc(F)cc1)C(=O)CS2,–,inconclusive: 7.59% [signal inhibitor]
Cc1nc(NC(=O)c2ccc(Br)s2)sc1C(=O)N(C)C,–,inactive
COc1ccc(NC(=O)Nc2nccs2)cc1,–,inactive
CCCCCCn1c(SCCC)nc2c1c(=O)[nH]c(=O)n2C,–,inactive
Cc1cccc(NC(=O)c2sc3nc4c(cc3c2N)CN(C(C)C)CC4)c1,–,inconclusive: -0.356% [signal inhibitor]
Cn1c(=O)c(-c2ccc(Cl)cc2)nc2cnc(N3CCOCC3)nc21,–,"inactive: 0.422% [at 11.4 µM, scaled: untreated 0%, proteasome inhibitor 100%]"
Cc1nc2ccccc2c(=O)n1/N=C/c1ccc(N(C)C)cc1,–,inactive
O=c1oc2ccc3ccccc3c2cc1-c1nnc(-c2ccccc2)o1,–,inconclusive: 0.991% [signal inhibitor]
Cc1cccc(N2CCN(C(=O)CN3C(=O)COc4ccc(S(=O)(=O)N5CCOCC5)cc43)CC2)c1C,–,inconclusive: 0.793% [signal inhibitor]
CCC1CCCCN1C(=O)CSc1nc(-c2ccc(OC)c(OC)c2)cc(C(F)(F)F)n1 (centres undefined),–,inconclusive: 14.6% [signal inhibitor]
O=C1NC(c2ccco2)Nc2sc3c(c21)CCN(Cc1ccccc1)C3 (centres undefined),–,inactive
